Among all 55,000 compounds or so, about 340 (0.62%) were called active. This list was built around the results that the source calls inconclusive (neither active nor inactive); the mix of calls is not that of the screen. The call rests on the fitted dose curve; in most records, active means well fitted cell-killing curve with a large enough effect; inconclusive means small, poorly fitted or top-dose-only effect; inactive means no such curve, though single readings can be large or run the other way. Potencies beside an inconclusive call are fits to weak or partial responses and may not hold up.
Assay: qHTS Screen for Compounds that Selectively Target Cancer Cells with p53 Mutations: Cytotoxicity of p53 Null Cells at the Permissive Temperature; further: nearly all actives have a fitted effect of over 55% in size
Settings: H1299-neo p53 null cells, ATP luminescence, 24 h, 32C; series mostly up to 46.1 µM
How it was run: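 Cytotoxicity: H1299-neo (no p53), 32C, 24 h treatment. Concentrations up to 46 uM. Readout cellular ATP, luminescence. Normalization to DMSO basal and tamoxifen 100 uM maximal kill.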
Tags describe the fitted curve by direction and shape.

Compound | Potency
Cc1cccc(OCC(=O)Nc2cc(-c3ccccc3F)nn2-c2ccccc2)c1 | inactive
CC(=O)N1CCOc2cc(S(=O)(=O)NC(C)c3ccccc3)c(Cl)cc21 (configuration not stated) | inconclusive: 12.6 µM [cytotoxic, single point]
CCOC(=O)C1CCN(c2nc3c(S(=O)(=O)c4ccccc4)nnn3c3ccsc23)CC1 | inconclusive: 11.2 µM [cytotoxic, partial curve, poor fit]
CCOC(=O)c1c(C)oc2ccc(N(C(=O)Oc3ccccc3)S(=O)(=O)c3ccc(CC)cc3)cc12 | inactive
Cc1ccc(-n2c(SCc3cccc(F)c3)nc3[nH]ncc3c2=O)cc1C | inactive
Cn1nc(C(=O)NCc2ccc(Cl)cc2)c2c1-c1ccccc1S(=O)(=O)C2 | inactive
COCCN1CCN(c2cc(-c3ccccc3)nc3cc(-c4cccc(F)c4)nn23)CC1 | inconclusive: 8.91 µM [cytotoxic, partial curve, poor fit]
COc1ccccc1N1CCN(c2ncnc3c2cnn3-c2cc(Cl)ccc2C)CC1 | inconclusive: 31.6 µM [cytotoxic, single point]
COc1ccccc1C(=O)Oc1c(Sc2ccccc2)c(C)nn1C(C)(C)C | inconclusive: 31.6 µM [cytotoxic, single point]
COc1ccc(NC(=O)c2ccc(-c3nc(CSc4ccc(C)cc4)c(C)o3)cc2)cc1Cl | inconclusive: 11.2 µM [cytotoxic, partial curve, poor fit]
CCc1nnc(NC(=O)c2nc(S(=O)(=O)Cc3ccc(C)cc3)ncc2Cl)s1 | inconclusive: 35.5 µM [cytotoxic, single point]
O=C(Nc1ccc(-c2noc(COc3ccccc3Cl)n2)cc1)c1ccco1 | inconclusive: 20 µM [cytotoxic, single point]
Cc1ccc(CNCc2ccccc2)s1 | inconclusive: 31.6 µM [cytotoxic, single point]
CCCCCSc1nc2sc3c(c2c(=O)n1-c1ccccc1)CCN(C(C)=O)C3 | inconclusive: 31.6 µM [cytotoxic, single point]
Cc1ccc(NC(=O)CSc2ncc3c(n2)-c2ccc(Cl)cc2N(C)S3(=O)=O)cc1F | inactive
Cn1nnnc1SCCCNCc1ccccc1OCc1ccccc1Cl | inactive
COc1cc(Cl)c(C)cc1NC(=O)c1cc2c(Cl)nc3ccc(C)cc3c2s1 | inconclusive: 35.5 µM [cytotoxic, single point]
Cc1nc2c(C(=O)NCCc3ccc(Cl)cc3)c[nH]n2c(=O)c1Cc1ccc(Cl)cc1 | inconclusive: 12.6 µM [cytotoxic, partial curve]
CCCCOc1ccc(CN2C(=O)C(=O)c3cc(Br)cc(C)c32)cc1OC | active: 35.5 µM
CCCC(CCC)C(=O)Nc1cc(-c2cn3cccnc3n2)ccc1OC | inconclusive: 4.47 µM [cytotoxic, single point]
Cc1ccc(C2=CC(c3ccccc3F)n3c(nc4ccccc43)N2)cc1C (configuration not stated) | active: 12.6 µM

Compound | Potency
Cc1nc2ccc(S(=O)(=O)NC(C(=O)N3CCN(c4cccc(Cl)c4)CC3)C(C)C)cc2s1 (configuration not stated) | inconclusive: 6.31 µM [cytotoxic, single point]
COc1ccc(OC)c(CNc2ncnc3c2nc2n3CCCC2)c1 | inconclusive: 12.6 µM [cytotoxic, single point]
Cc1ccc(NC(=O)c2sc3nc(-c4ccncc4)ccc3c2N)cc1 | inconclusive: 25.1 µM [cytotoxic, single point]
O=C(NC1CC1)c1ccc(Cn2c(SCc3ccc(F)cc3)nc3cccnc32)cc1 | inconclusive: 4.47 µM [cytotoxic, full curve]
O=c1c2c3c(sc2ncn1-n1cccc1)CCCCC3 | inconclusive: 12.6 µM [cytotoxic, partial curve]
COc1ccc(-c2nc3c(c(SCC(=O)Nc4ccccc4OC)n2)Cc2cccc(C)c2O3)cc1 | inconclusive: 3.98 µM [cytotoxic, single point]
N#Cc1ccccc1NC(=O)C(=O)NCC(c1ccc2c(c1)OCO2)N1CCOCC1 (configuration not stated) | inconclusive: 1.26 µM [cytotoxic, full curve]
COc1cc(-c2oc3ccc(C)cc3c(=O)c2O)cc(OC)c1OC | inconclusive: 15.8 µM [cytotoxic, partial curve]
Cc1ccc2c(CC(=O)N(Cc3ccc(N(C)C)cc3)Cc3ccco3)coc2c1C | inactive
COc1ccc(OC)c(NC(=O)c2nc(S(=O)(=O)Cc3ccc(F)cc3)ncc2Cl)c1 | inconclusive: 12.6 µM [cytotoxic, partial curve]
COc1cc(CNCc2ccccn2)ccc1OCc1ccc(Cl)cc1 | inactive
O=C(/C=C/c1ccccc1[N+](=O)[O-])Nc1cccnc1 | inconclusive: 0.891 µM [cytotoxic, partial curve, poor fit]
Cc1ccc(OCC(=O)N/N=C\c2c(C)[nH]n(-c3ccccc3)c2=O)c([N+](=O)[O-])c1 | inconclusive: 11.2 µM [cytotoxic, partial curve]
COc1ccc(C(=O)c2cn(CC(=O)Nc3cc(OC)cc(OC)c3)c3ccc(OC)cc3c2=O)cc1 | inconclusive: 35.5 µM [cytotoxic, single point]
COCn1c(COc2ccc3ccccc3c2)nc2ccccc21 | inconclusive: 22.4 µM [cytotoxic, single point]
CCOCc1cc(CN2CCN(c3cccc(C(F)(F)F)c3)CC2)c(O)c2ncccc12 | inconclusive: 0.631 µM [cytotoxic, full curve, poor fit]
O=C(NCCc1nc2ccccc2n1Cc1ccccc1F)c1ccc(F)cc1 | inconclusive: 5.62 µM [cytotoxic, single point]
Cc1c(Cl)cccc1NC(=O)C(=O)NCCc1csc2nc(-c3ccccc3F)nn12 | inconclusive: 31.6 µM [cytotoxic, single point]
CCN(CC)S(=O)(=O)c1ccc2c(c1)nc(CN(C)C(=O)Nc1ccc(C)c(Cl)c1)n2C | inconclusive: 6.31 µM [cytotoxic, single point]
Cc1nn(C)cc1/C=C/C(=O)c1cccs1 | inconclusive: 10 µM [cytotoxic, single point]
O=C(CSc1nc2c([nH]c3ccccc32)c(=O)n1-c1ccc(Cl)cc1)N1CCc2ccccc21 | inconclusive: 5.62 µM [cytotoxic, single point]

Compound | Potency
Cc1ccc(-c2nc(CCNC(=O)c3ccc(C)c(C)c3)cs2)cc1 | inconclusive: 5.62 µM [cytotoxic, single point]
CC(NC(=O)c1ccc2c(c1)N(Cc1ccc(Cl)cc1)C(=O)CS2)c1ccccc1 (configuration not stated) | inconclusive: 5.62 µM [cytotoxic, single point]
Cc1ccc(CSc2nc3cccnc3n2Cc2ccc(C(=O)NCc3ccco3)cc2)cc1 | inconclusive: 3.98 µM [cytotoxic, partial curve]
COc1ccc(OC)c(CCNC(=O)c2cc3c(s2)-c2c(C)cccc2OC3)c1 | inconclusive: 10 µM [cytotoxic, partial curve, poor fit]
Cc1ccc(-c2nc(C)c(CCNC(=O)c3cccs3)s2)cc1 | inconclusive: 4.47 µM [cytotoxic, single point]
CC1CCCN(C(=O)c2cc3ccc4cccnc4c3[nH]2)C1 (configuration not stated) | active: 1 µM
O=C(NNC1=C(C(=O)C(F)(F)F)CCC1)c1cccc(O)c1 | inconclusive: 12.6 µM [cytotoxic, partial curve, poor fit]
Cc1cn2c(=O)cc(COc3ccccc3NC(=O)c3ccco3)nc2s1 | inconclusive: 35.5 µM [cytotoxic, single point]
O=C(O)c1cc(-c2ccc(C(F)(F)F)cc2)nc2n[nH]c(-c3ccccc3)c12 | inconclusive: 12.6 µM [cytotoxic, partial curve]
COc1ccccc1N1CCN(C(=O)Cn2ncc3c(=O)oc4ccc(C)cc4c32)CC1 | inconclusive: 5.62 µM [cytotoxic, single point]
CCN1CCN(c2cc(C)c3cc(NC(=O)c4cc(Cl)ccc4OC)ccc3n2)CC1 | inconclusive: 31.6 µM [cytotoxic, single point]
COC(=O)c1ccccc1NC(=O)C1=C(C)C(=O)OC12CCC(C)CC2 (configuration not stated) | inactive
CCOC(=O)/C(C#N)=C/c1ccc(-c2ccc(C)cc2)o1 | inconclusive: 10 µM [cytotoxic, partial curve]
CCSc1nn(CC(=O)Nc2cccc(Cl)c2)c(N)c1S(=O)(=O)c1ccc(OC)cc1 | inconclusive: 20 µM [cytotoxic, single point]
Cc1ccc(C2CCN(C(=O)Nc3ccc(C)c(C)c3)C2)cc1 (configuration not stated) | inconclusive: 5.01 µM [cytotoxic, partial curve]
CCOC(=O)c1cc(-c2ccc(F)cc2)n(CCC(=O)NC2CCC(C)CC2)c1C (configuration not stated) | inconclusive: 0.005 µM [cytotoxic, full curve, poor fit]
COc1cccc(NC(=O)Cn2c(=O)n(Cc3ccc(F)cc3)c(=O)c3sc4ccccc4c32)c1 | inconclusive: 3.98 µM [cytotoxic, partial curve]
CCc1ccccc1S(=O)(=O)Cc1ccc(C(=O)NCCc2ccc(Cl)cc2)o1 | inactive
COc1ccc(NC(=O)c2ccc(NC(=O)CCS(=O)(=O)c3cccs3)cc2)cc1Cl | inconclusive: 25.1 µM [cytotoxic, single point]
COc1ccccc1/C=C/C(=O)Nc1nc2n(n1)C(c1ccc(F)cc1)C=C(c1ccccc1)N2 (configuration not stated) | inconclusive: 6.31 µM [cytotoxic, partial curve]

Reference: PubChem BioAssay AID903 (National Center for Advancing Translational Sciences (NCATS), 2007)
